# Experimental data reported in the supplement of paper PMC3724861.
# Some of the results follow.
# Tested on: T1, Caupolican (Caup) homeodomain DNA-binding domain
# T1 sequence: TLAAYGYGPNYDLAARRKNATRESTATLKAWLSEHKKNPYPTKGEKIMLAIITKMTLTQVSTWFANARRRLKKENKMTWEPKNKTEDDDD
# Assay: PBM E-score (8-mer, recovered from the published 9-mer minima) (E-score (dimensionless, -0.5 to 0.5)); Drosophila protein; higher = stronger relative binding preference, active = 0.31 or more
# Procedure, shortened: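 Caup's homeodomain DNA-binding domain (residues 214-303) was made by in vitro transcription and translation and applied at 100 nM to custom-designed protein binding microarrays. Each value is an enrichment score that gives relative binding preference for a short DNA word, with higher meaning stronger. The 8-mer values were recovered from published 9-mer scores, each of which was the minimum of its two constituent 8-mer scores. A cutoff of 0.31 marks candidate sites.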
row,Sequence,PBM E-score
1,GGGGACAA,inactive: 0.057
2,GAATACGA,inactive: 0.136
3,TCACATGA,inactive: 0.182
4,AAGTAACG,inactive: 0.0695
5,GGGGGGGA,inactive: -0.398
6,AAGTTAGT,inactive: 0.0752
7,GGGGGTAA,inactive: -0.208
8,AGGCGTTC,inactive: -0.119
9,GTATGAAA,inactive: 0.145
10,TATAGACA,inactive: 0.298
11,ATTCGAGC,inactive: -0.0541
12,GGATTGAA,inactive: -0.00464
13,GATGAGGA,inactive: -0.0442
14,ACGTTTAT,inactive: 0.0633
15,AGCAGACG,inactive: -0.128
16,GTCTTTGA,inactive: -0.0404
17,CCACGATC,inactive: 0.0343
18,CGCTGCCA,inactive: -0.19
19,CCTGCGGA,inactive: -0.128
20,CAACATCA,inactive: 0.298
21,TAGGTACA,inactive: 0.271
22,CAGATACA,inactive: 0.292
23,GATAACGC,inactive: -0.0177
24,AGGCCAGC,inactive: -0.208

row,Sequence,PBM E-score
1,CTCAAGTA,inactive: 0.152
2,ACCCCGGC,inactive: -0.22
3,ACCCCCCC,inactive: -0.409
4,ACCAAAAT,inactive: 0.0493
5,CATGCATC,inactive: 0.0576
6,CGATAACG,inactive: -0.0766
7,AGCGCTCG,inactive: -0.146
8,ACTCTGGG,inactive: -0.162
9,TCTGACCA,≥ 0.0177
10,CCTCGCAC,inactive: -0.0533
11,CGACCCAG,inactive: -0.124
12,CTTCTCAC,inactive: -0.101
13,ACAACGAT,inactive: 0.186
14,CAGGCCGA,inactive: -0.13
15,CCCTCGGA,inactive: -0.156
16,TCCGTAAA,inactive: -0.0398
17,GTAGAGCA,inactive: 0.0304
18,ACACGACA,active: ≥ 0.386
19,AGCCGGCG,inactive: -0.278
20,ATCGCCCA,inactive: -0.106
21,CTGACGTC,inactive: -0.0596
22,AAACGCTC,inactive: -0.101
23,CGTAGCAC,inactive: 0.00405
24,TCGATGCA,inactive: 0.0975

row,Sequence,PBM E-score
1,GAGAGATC,inactive: 0.0319
2,AATTGGGT,≥ 0.0803
3,AAATCGAC,inactive: 0.0824
4,TGATACCA,≥ 0.163
5,CTTCGGAC,inactive: -0.0138
6,AGACAAGC,inactive: 0.242
7,ATCATTGC,inactive: 0.0874
8,CCACCGGA,inactive: -0.107
9,ACAACCAC,inactive: 0.225
10,GCGGCGAC,inactive: -0.167
11,AGTTGGTG,inactive: -0.0391
12,CCTCATAA,inactive: 0.021
13,ACATGGCT,inactive: 0.229
14,ATGGATTA,inactive: 0.0621
15,CCTGTCCA,inactive: 0.0374
16,CCAGTGAG,inactive: -0.148
17,AATCGTCC,inactive: 0.0139
18,TACTCCGA,≥ -0.0184
19,TACGTCGA,inactive: -0.0194
20,CCACCGCG,inactive: -0.187
21,ACAAGGCT,inactive: 0.212
22,CTAACATC,inactive: 0.208
23,CAGAATAG,inactive: 0.0182
24,ACGTCCTG,inactive: -0.0739

row,Sequence,PBM E-score
1,GCCCGGAA,inactive: -0.219
2,CTGGGATC,inactive: -0.152
3,TAAAGCCA,inactive: 0.00246
4,AAGGCGCC,inactive: -0.16
5,CCAAGTCC,inactive: -0.141
6,TCATGTCA,active: 0.391
7,AAACGGAC,inactive: -0.0481
8,GAGCCTGC,inactive: -0.108
9,CTTAAGAA,inactive: 0.0752
10,CTCATTCA,inactive: 0.00411
11,CATTATAC,inactive: 0.154
12,CCAGCCTC,inactive: -0.203
13,ATGAGCCC,inactive: -0.0983
14,GCGTTGGA,inactive: -0.0829
15,ATGCAATG,inactive: 0.0749
16,ATCGCTGC,inactive: -0.159
17,GAGGCATC,inactive: -0.258
18,AGACAGGA,inactive: 0.134
19,CCGGGGGA,inactive: -0.317
20,TGCAGCAA,inactive: 0.0278
21,AGTTTCGG,inactive: 0.0621
22,GAAACGCC,inactive: -0.0373
23,CAGTTGCC,inactive: -0.0665
24,AAATGGGT,inactive: 0.00068

row,Sequence,PBM E-score
1,ATTATGGA,≥ 0.114
2,GCACAACC,inactive: -0.0222
3,CAAATCTC,inactive: 0.021
4,CTGATCTC,inactive: -0.0515
5,ACCCTACT,inactive: 0.0764
6,AAGGGGCA,inactive: -0.155
7,GGGGTTTA,inactive: -0.0962
8,CTTCCTTA,inactive: 0.0568
9,GATGTTGA,inactive: 0.254
10,CCCTGTGC,inactive: -0.205
11,CAAGCTGA,inactive: 0.031
12,CAATACTG,inactive: 0.089
13,ATCTTTAC,inactive: 0.139
14,GATTCTGA,inactive: 0.0205
15,CTTGCAGC,inactive: -0.11
16,AACGTAAG,inactive: -0.0364
17,ATCGGATG,inactive: 0.0211
18,GCGTACAC,inactive: 0.217
19,AACTGACT,inactive: 0.0473
20,CACCTACA,inactive: 0.17
21,ATTAGATC,inactive: 0.122
22,GCAAGCTA,inactive: 0.00418
23,GGTCGAGA,inactive: -0.144
24,ATGTCGAG,inactive: 0.274

row,Sequence,PBM E-score
1,CGGTCCGC,inactive: -0.22
2,ACCACAAG,inactive: 0.0407
3,ATTGCGTG,inactive: 0.03
4,ACGATCCG,inactive: -0.043
5,ACTACAAA,inactive: 0.256
6,TTAGCTAA,inactive: 0.0617
7,GCACACAC,inactive: 0.0659
8,GTCCACAA,inactive: 0.0838
9,CCGCCTAC,inactive: -0.103
10,ACCTAATG,inactive: -0.0525
11,CCAAGAAC,inactive: -0.0553
12,AGTTCAAT,inactive: 0.0193
13,AAGTAATA,inactive: 0.134
14,AGAGGATC,inactive: -0.0232
15,TCCTGAGA,inactive: -0.00828
16,TAATCGTA,inactive: 0.155
17,CCCAAAAA,inactive: -0.0679
18,ACCAGCGG,inactive: -0.174
19,ACCTTGCA,inactive: 0.00259
20,CCGTGATC,inactive: -0.091
21,CTTGTTTA,inactive: 0.254
22,ACTTTCCC,inactive: -0.0936
23,CAATCTTA,≥ 0.125
